According to article PMC11126936, “Reactivating Hippo by drug compounds to suppress gastric cancer and enhance chemotherapy sensitivity” (The Journal of Biological Chemistry, 2024):
Several values for one entry are separate records, joined by “and”; a condition that tells them apart may be missing. Equal values may be shown once. Where a name gives a salt, the structure may show the parent alone.

Key:
[1] = Second-round AlphaScreen false-positive control (Table S4)
[2] = Second-round AlphaScreen false-positive control with biotin-labeled and His-tagged STRN3 (Table S2)
[3] = system: Hippo signaling (LATS1, MOB1, YAP phosphorylation) in HGC-27 cells; experiment: Immunoblots of Hippo components in HGC-27 cells
[4] = system: seven GC cell lines (MKN-28, NUGC-4, SNU-216, MGC-803, AGS, MKN-45, HGC-27); experiment: Cell viability of seven GC cell lines; details: Homo sapiens, read-out: IC50 values, seven GC cell lines
[5] = system: 11 different GC cells; experiment: Cisplatin cell viability in 11 GC cell lines; details: read-out: IC50, cisplatin-resistant GC cell lines; cell lines with lower pMST1/2 such as AGS, AZ521, MKN-28
[6] = 2nd round validation screen, STRN3-MST2, disruption of protein-bead interactions

Row | Compound | False positive rate (%) [2] | False positive rate (%) [1, 6] | other results
1 | 6-BIO | 82.4556% |  | False positive rate (%) [1]: 83.6108%
2 | COC1CCN(C(=O)c2cc(Cc3n[nH]c(=O)c4ccccc34)ccc2F)CC1 [AZD2461] |  | 21.0804% | 
3 | COc1cc(N2CCC(N)CC2)ccc1Nc1ncc(Cl)c(-c2c[nH]c3ccccc23)n1 [AZD3463] | 62.6993% |  | 
4 | C=CC(=O)Nc1cc(Nc2nccc(-c3cn(C)c4ccccc34)n2)c(OC)cc1N(C)CCN(C)C [AZD9291] |  | 28.7018% | 
5 | CCCCc1oc2ccccc2c1C(=O)c1cc(I)c(OCCN(CC)CC)c(I)c1 [Amiodarone hydrochloride] |  | 7.287% | 
6 | CN(C)Cc1ccc(-c2cnn3c(-c4cccc(NC(=O)c5cccc(C(F)(F)F)c5)c4)ccnc23)cc1 [B-Raf IN 1] |  | 3.141% | 
7 | O=C(O)CCCC[C@@H]1SC[C@@H]2NC(=O)N[C@@H]21 [BIOTIN] |  | 97.8806% | False positive rate (%) ([1]; 2nd round validation screen, STRN3-MST2, disruption of protein-bead interactions, listed as D-Biotin): 97.6042%
8 | Cc1c(-c2ccc(O)cc2)n(Cc2ccc(OCCN3CCCCCC3)cc2)c2ccc(O)cc12 [Bazedoxifene acetate] |  | 12.8279% | 
9 | COc1c2ccoc2cc2oc(=O)ccc12 [Bergapten] |  | 89.6696% | 
10 | CC1=C(O)C(=O)C=C2C1=CC=C1[C@@]2(C)CC[C@@]2(C)[C@@H]3C[C@](C)(C(=O)O)CC[C@]3(C)CC[C@]12C [CELASTROL] | 22.2936% |  | 
11 | CC(=O)OCC1=C(C(=O)O)N2C(=O)[C@@H](NC(=O)CCC[C@@H](N)C(=O)O)[C@H]2SC1 [CEPHALOSPORIN C] | 2.128% |  | 
12 | COc1cc(-c2ccc(N=Nc3ccc4c(S(=O)(=O)[O-])cc(S(=O)(=O)[O-])c(N)c4c3O)c(OC)c2)ccc1N=Nc1ccc2c(S(=O)(=O)[O-])cc(S(=O)(=O)[O-])c(N)c2c1O.[Na+].[Na+].[Na+].[Na+] [CHICAGO SKY BLUE 6B] |  | 66.5178% | 
13 | CN1CCCN(C(=O)c2cccc(-c3ccc(C=C4C(=O)Nc5ccc(Cl)cc54)o3)c2)CC1 [CX, CX-6258] |  | 18.0915% | phosphorylation of LATS1, MOB1 and YAP [3]: enhanced
14 | [H]/N=C(\N/C(=N/[H])NCCCCCCNC(=N)NC(=N)Nc1ccc(Cl)cc1)Nc1ccc(Cl)cc1 [Chlorhexidine] |  | -16.6514% | 
15 | CC(C)/N=c1\cc2n(-c3ccc(Cl)cc3)c3ccccc3nc-2cc1Nc1ccc(Cl)cc1 [Clofazimine] |  | 55.2232% | 
16 | CCN(CC)C(=S)SSC(=S)N(CC)CC [DSF, disulfiram] |  |  | IC50 [4]: 40 to 190 nM
17 | CC(C)CN(C[C@@H](O)[C@H](Cc1ccccc1)NC(=O)O[C@H]1CO[C@H]2OCC[C@H]21)S(=O)(=O)c1ccc(N)cc1.CCO [Darunavir Ethanolate] | 7.178% |  | 
18 | CCN1c2cc(N)ccc2-c2ccc(N)cc2C1c1ccccc1 (stereo not shown) [Dihydroethidium] |  | 45.959% | 
19 | CO[C@H]1C[C@H](O[C@H]2[C@H](C)O[C@@H](O[C@@H]3/C(C)=C/C[C@@H]4C[C@@H](C[C@]5(C=C[C@H](C)[C@@H](C6CCCCC6)O5)O4)OC(=O)[C@@H]4C=C(C)[C@@H](O)[C@H]5OC/C(=C\C=C\[C@@H]3C)[C@]54O)C[C@@H]2OC)O[C@@H](C)[C@@H]1O [Doramectin] |  | 13.8074% | 
20 | CC(C)(C)c1ccc(C(=O)CCCN2CCC(OC(c3ccccc3)c3ccccc3)CC2)cc1 [Ebastine] |  | 11.7647% | 

Row | Compound | False positive rate (%) [2] | False positive rate (%) [1, 6] | other results
21 | Cc1cc(O)c2c(c1)C(=O)c1cc(O)cc(O)c1C2=O [Emodin] |  | 22.5571% | 
22 | Cc1cc(-c2ccc(/N=N/c3ccc4c(S(=O)(=O)O)cc(S(=O)(=O)O)c(N)c4c3O)c(C)c2)ccc1/N=N/c1ccc2c(S(=O)(=O)O)cc(S(=O)(=O)O)c(N)c2c1O [Evans blue] |  | 68.3541% | 
23 | Cc1ccc(C(=O)Nc2ccc(CN3CCN(C)CC3)c(C(F)(F)F)c2)cc1C#Cc1cnc2[nH]ncc2c1 [GZD824 Dimesylate] |  | -6.156% | 
24 | CC(C)c1cc(-c2n[nH]c(=O)n2-c2ccc3c(ccn3C)c2)c(O)cc1O [Ganetespib] |  | 21.1678% | 
25 | CC1(C)S[C@@H]2[C@H](N3C(=O)[C@@H](c4ccccc4)NC3(C)C)C(=O)N2[C@H]1C(=O)O [HETACILLIN POTASSIUM] |  | -1.274% | 
26 | COc1cc(OC)c(C=C2C(O)=Nc3ccccc32)c(OC)c1 [IC261] | 10.8171% |  | 
27 | Cl.Fc1ccc(-n2cc(CCCCN3CCC4(CC3)OCc3ccccc34)c3ccccc32)cc1 [Lu-28-179] |  |  | False positive rate (%) [1]: 28.534%
28 | O=C([O-])c1ccccc1-c1c2cc(Br)c(=O)cc-2oc2[c]([Hg+])c([O-])c(Br)cc12.[Na+].[Na+].[OH-] [Merbromin] | 18.2372% |  | 
29 | CO/N=C1\C[C@]2(C[C@@H]3C[C@@H](C/C=C(\C)C[C@@H](C)/C=C/C=C4\CO[C@@H]5[C@H](O)C(C)=C[C@@H](C(=O)O3)[C@]45O)O2)O[C@H](/C(C)=C/C(C)C)[C@H]1C [Moxidectin] |  | 23.9524% | 
30 | C/C(=N\NC(=S)N1CCC1)c1ccccn1 [NSC319726] |  | 55.8309% | 
31 | CCOc1cc2ncc(C#N)c(Nc3ccc(OCc4ccccn4)c(Cl)c3)c2cc1NC(=O)/C=C/CN(C)C [Neratinib(HKI-272), Neratinib] | 9.966% |  | 
32 | O=[N+]([O-])c1ccc(O)c2ncccc12 [Nitroxoline] |  | 72.0137% | 
33 | COc1cccc(NCC(F)Cn2c3ccc(Br)cc3c3cc(Br)ccc32)c1 (stereo not shown) [P7C3-A20] | 18.713% |  | 
34 | OC(CNc1ccccc1)Cn1c2ccc(Br)cc2c2cc(Br)ccc21 (stereo not shown) [P7C3] | 31.4915% |  | 
35 | O=C(/C=C/c1ccc2ccccc2n1)c1ccncc1 [PFK-015] | 0.3672% |  | 
36 | CCOc1cc2ncc(C#N)c(Nc3ccc(F)c(Cl)c3)c2cc1NC(=O)/C=C/CN(C)C [Pelitinib (EKB-569), Pelitinib] |  | 7.906% | 
37 | NCCNc1ccc(NCCN)c2c1C(=O)c1ccncc1C2=O.O=C(O)/C=C\C(=O)O.O=C(O)/C=C\C(=O)O [Pixantrone dimaleate] | 64.3519% |  | 
38 | NCCOc1cc(C(=O)Nc2cc(OCCN)c3ccccc3n2)nc(C(=O)Nc2cc(OCCN)c3ccccc3n2)c1 [Pyridostatin] |  | 2.107% | 
39 | CNC(=O)c1cc(Oc2ccc(NC(=O)Nc3ccc(Cl)c(C(F)(F)F)c3)c(F)c2)ccn1 [Regorafenib] |  | 36.7223% | 
40 | O=C1NC(=NCc2cccs2)S/C1=C\c1ccc2ncccc2c1 [Ro-3306] | 8.046% |  | 

Row | Compound | False positive rate (%) [2] | False positive rate (%) [1, 6] | other results
41 | C[n+]1cc2c3c(ccc2c2ccc4cc5c(cc4c21)OCO5)OCO3 [SANGUINARIUM CHLORIDE] | -0.3506% |  | 
42 | CO[C@H]1C[C@H](O[C@@H]2/C(C)=C/C[C@@H]3C[C@@H](C[C@]4(CC[C@H](C)[C@@H](C5CCCCC5)O4)O3)OC(=O)[C@@H]3C=C(C)/C(=N/O)[C@H]4OC/C(=C\C=C\[C@@H]2C)[C@]43O)O[C@@H](C)[C@@H]1O [SelaMeerin] |  | 8.709% | 
43 | O=C(O)c1cc(O)c2c(c1)[C@@H]([C@H]1c3cc(C(=O)O)cc(O)c3C(=O)c3c(O[C@@H]4O[C@H](CO)[C@@H](O)[C@H](O)[C@H]4O)cccc31)c1cccc(O[C@@H]3O[C@H](CO)[C@@H](O)[C@H](O)[C@H]3O)c1C2=O [Sennoside B] |  | 74.2713% | 
44 | COc1cc(NS(=O)(=O)c2ccc(N)cc2)ncn1 [Sulfamonomethoxine] |  | 1.205% | 
45 | Cc1ccc(C(=O)Nc2ccc(S(=O)(=O)[O-])c3cc(S(=O)(=O)[O-])cc(S(=O)(=O)[O-])c23)cc1NC(=O)c1cccc(NC(=O)Nc2cccc(C(=O)Nc3cc(C(=O)Nc4ccc(S(=O)(=O)[O-])c5cc(S(=O)(=O)[O-])cc(S(=O)(=O)[O-])c45)ccc3C)c2)c1.[Na+].[Na+].[Na+].[Na+].[Na+].[Na+] [Suramin Sodium Salt] |  | 13.1037% | 
46 | COc1cc(N2CCC(N3CCN(C)CC3)CC2)ccc1Nc1ncc(Cl)c(Nc2ccccc2S(=O)(=O)C(C)C)n1 [TAE684 (NVP-TAE684), TAE684] |  | 46.7593% | 
47 | CNC(=O)c1ccccc1Nc1nc(Nc2ccc(N3CCOCC3)cc2OC)ncc1Cl [TAE-226] | 27.8775% |  | 
48 | COc1ccc(C(=C2C(=O)Nc3ccccc32)c2ccc(OC)cc2)cc1 [TAS-301] | 38.0603% |  | False positive rate (%) [1]: 40.9573%
49 | CCCCCCCCCCCCCCCC[N+](C)(C)CCN(Cc1ccc(OC)cc1)c1ncccn1 [THONZONIUM BROMIDE] |  | -3.7338% | 
50 | CC[C@@H](c1cccc(O)c1)[C@@H](C)CN(C)C.Cl [Tapentadol Hydrochloride] |  | 12.5306% | 
51 | CC(C)N1CCN(c2ccc(OCC3COC(Cn4cncn4)(c4ccc(Cl)cc4Cl)O3)cc2)CC1 (stereo not shown) [Terconazole] |  | 14.704% | 
52 | COc1ccc(C(=O)O[C@H]2CC[C@@]3(C)[C@@H]4CC[C@H]5[C@]6(O)C[C@H](O)[C@@]7(O)[C@@H](CN8C[C@@H](C)CC[C@H]8[C@@]7(C)O)[C@]6(O)C[C@@]53O[C@]24O)cc1OC [Veratridine] | 16.6514% |  | 
53 | COc1ccc(N(C(=O)Oc2c(C)cccc2C)c2ccnc(Nc3ccc(N4CCN(C)CC4)cc3)n2)c(OC)c1 [WH-4-023] | 30.0893% |  | 
54 | N.N.[Cl][Pt][Cl] [cisplatin] |  |  | IC50 [5]: > 20000 nM
55 | NCC(=O)Nc1ccc(-n2nc(C(F)(F)F)cc2-c2ccc3c(ccc4ccccc43)c2)cc1 [osu-03012] |  | 19.2372% | 
56 | Abamectin |  | 17.4999% | 
57 | Chlorophyllin |  | 59.4685% | 
58 | Glycerite |  | 83.611% and 65.1816% | 
59 | Spiramycin |  | -1.065% | 
60 | Teicoplanin |  | -9.109% | 
